Reference: US20260265305A1, “POLYPEPTIDE DERIVATIVE FOR ORAL DELIVERY” (Hangzhou Sciwind Biosciences Co., Ltd., priority 2023, published 2026)
Read-outs that look alike come from different tables or passages of the source. For part of these data: Part of at least one peptide drawing is inferred or uncertain, most often the ends. For part of these data: For at least one compound, name, drawing or mass did not settle the structure. Numbered stars: 1 amine (or outer) side, 2 acyl side, 3 side chain; on linkers, the order of the positions; unused ones are H or OH. Bridge positions count the residues as written; N and C are the ends. Square brackets hold non-standard residues; d marks the D form. Peptide text beside a SMILES is read from it. * marks the point of attachment. C20 diacid = O=C(O)CCCCCCCCCCCCCCCCCCC(=O)*; C18 diacid = O=C(O)CCCCCCCCCCCCCCCCC(=O)*; βAsp = O=C(O)[C@H](CC(=O)[*:2])N[*:1]; Hyp = O=C(O)[C@@H]1C[C@@H](O)CN1; Trx = NC[C@H]1CC[C@H](C(=O)O)CC1; AEEA = NCCOCCOCC(=O)O

Columns and labels:
[1] = target: T1, amylin receptor (hAMY3R) (Homo sapiens, UniProt O60896+P30988); assay: Amylin receptor agonism testing, CRE-luciferase assay in stably transfected CHO-K1/Ga15/AMY3 cells; type: cell-based
T1 construct: host or cells: CHO-K1/Ga15/AMY3 cells, further stably transfected with a CRE-luciferase plasmid
T1 sequence (P30988 25-474): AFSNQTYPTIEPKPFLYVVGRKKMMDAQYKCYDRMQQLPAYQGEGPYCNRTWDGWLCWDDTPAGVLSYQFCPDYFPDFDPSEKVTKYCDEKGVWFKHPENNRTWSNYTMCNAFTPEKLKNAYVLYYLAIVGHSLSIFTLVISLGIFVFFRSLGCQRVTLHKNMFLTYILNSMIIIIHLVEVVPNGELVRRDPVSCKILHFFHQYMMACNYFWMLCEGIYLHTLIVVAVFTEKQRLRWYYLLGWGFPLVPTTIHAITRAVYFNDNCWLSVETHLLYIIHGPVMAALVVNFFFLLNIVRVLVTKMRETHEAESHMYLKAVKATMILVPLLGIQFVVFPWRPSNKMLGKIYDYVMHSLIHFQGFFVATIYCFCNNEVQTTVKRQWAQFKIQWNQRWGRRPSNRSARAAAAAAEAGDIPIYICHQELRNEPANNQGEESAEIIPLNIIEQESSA
T1 sequence (O60896 24-148): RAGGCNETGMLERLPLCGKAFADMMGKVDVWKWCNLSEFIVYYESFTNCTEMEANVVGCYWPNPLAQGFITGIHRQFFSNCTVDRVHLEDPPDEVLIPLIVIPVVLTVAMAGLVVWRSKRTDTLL

[2] = target: T2, calcitonin receptor (hCTR) (Homo sapiens, UniProt P30988); assay: Calcitonin receptor agonism, CRE-luciferase assay in stably transfected CHO-K1/CALCR/Ga15 cells; type: cell-based
T2 construct: host or cells: CHO-K1/CALCR/Ga15 cells, further stably transfected with a CRE-luciferase plasmid
T2 sequence (P30988 25-474): T1 sequence (P30988 25-474)

[3] = Efficacy assay in SD rats, dose-dependent study, single subcutaneous dose; type: in vivo
Text: […] Food intake was the amount of food consumed by each of the animals per day.

[4] = compared with D1; see Example 3 in CN 202310614769.1; cited from earlier work
[5] = Table 5 integrated analysis, read-out: hAMY3R EC50
[6] = incubation of 24 hours, Table 3, read-out: EC50, activity against the amylin receptor in cells
[7] = Table 5 integrated analysis, read-out: hCTR EC50
[8] = incubation of 24 hours, Table 4, read-out: EC50, activity against the calcitonin receptor in cells
[9] = 5 nmol/kg single s.c. dose, Table 10
[10] = 25 nmol/kg single s.c. dose, Table 10
[11] = 125 nmol/kg single s.c. dose, Table 10
[12] = 30 nmol/kg single s.c. dose, Table 9
[13] = 100 nmol/kg single s.c. dose, Table 9

Row | Structure (SMILES) | EC50 [1, 5] | EC50 [1, 6] | EC50 [2, 7] | EC50 [2, 8] | 24 h food intake [3, 9] | 24 h weight change [3, 9] | 24 h food intake [3, 10] | 24 h weight change [3, 10] | 24 h food intake [3, 11] | 24 h weight change [3, 11] | also measured
1 | CC(C)C[C@H](NC(=O)[C@H](CCCNC(=N)N)NC(=O)CNC(=O)[C@H](CC(C)C)NC(=O)[C@@H](NC(=O)[C@H](C)NC(=O)[C@@H](NC(=O)[C@H](CO)NC(=O)[C@H](CC(C)C)NC(=O)[C@H](CCC(N)=O)NC(=O)[C@H](CO)NC(=O)[C@H](C)NC(=O)[C@H]1CC[C@H](CNC(=O)CCCCCCCCCCCCCCCCCCC(=O)O)CC1)[C@@H](C)O)C(C)C)C(=O)N[C@@H](CO)C(=O)N[C@@H](CC(=O)O)C(=O)N[C@@H](CCC(=O)O)C(=O)N[C@@H](CC(C)C)C(=O)N[C@@H](Cc1c[nH]cn1)C(=O)N[C@@H](CCCNC(=N)N)C(=O)N[C@@H](CC(C)C)C(=O)N[C@@H](CCC(N)=O)C(=O)N[C@@H](CC(=O)O)C(=O)N[C@@H](Cc1ccc(O)cc1)C(=O)N1CCC[C@H]1C(=O)N[C@@H](CCCNC(=N)N)C(=O)N[C@H](C(=O)N[C@@H](CC(=O)O)C(=O)N[C@H](C(=O)NCC(=O)N[C@@H](CO)C(=O)NCC(=O)N[C@@H](CO)C(=O)N1CCC[C@H]1C(N)=O)C(C)C)[C@@H](C)O [M14] ({C20 diacid-Trx}-ASQLSTAVLGRLSDELHRLQDYPRTDVGSGSP-NH2) | 0.456 nM | 0.456 nM | 0.587 nM | 0.587 nM |  |  |  |  |  |  | 
2 | CC(C)C[C@H](NC(=O)[C@H](CCCNC(=N)N)NC(=O)CNC(=O)[C@H](CC(C)C)NC(=O)[C@@H](NC(=O)[C@H](C)NC(=O)[C@@H](NC(=O)[C@H](CO)NC(=O)[C@H](CC(C)C)NC(=O)[C@H](CCC(N)=O)NC(=O)[C@H](CO)NC(=O)[C@H](C)NC(=O)[C@H]1CC[C@H](CNC(=O)CCCCCCCCCCCCCCCCC(=O)O)CC1)[C@@H](C)O)C(C)C)C(=O)N[C@@H](CO)C(=O)N[C@@H](CC(=O)O)C(=O)N[C@@H](CCC(=O)O)C(=O)N[C@@H](CC(C)C)C(=O)N[C@@H](Cc1c[nH]cn1)C(=O)N[C@@H](CCCNC(=N)N)C(=O)N[C@@H](CC(C)C)C(=O)N[C@@H](CCC(N)=O)C(=O)N[C@@H](CC(=O)O)C(=O)N[C@@H](Cc1ccc(O)cc1)C(=O)N1CCC[C@H]1C(=O)N[C@@H](CCCNC(=N)N)C(=O)N[C@H](C(=O)N[C@@H](CC(=O)O)C(=O)N[C@H](C(=O)NCC(=O)N[C@@H](CO)C(=O)NCC(=O)N[C@@H](CO)C(=O)N1CCC[C@H]1C(N)=O)C(C)C)[C@@H](C)O [M15] ({C18 diacid-Trx}-ASQLSTAVLGRLSDELHRLQDYPRTDVGSGSP-NH2) |  |  | 0.469 nM | 0.469 nM |  |  |  |  |  |  | 
3 | CC(C)C[C@H](NC(=O)[C@H](CCCNC(=N)N)NC(=O)CNC(=O)[C@H](CC(C)C)NC(=O)[C@@H](NC(=O)[C@H](C)NC(=O)[C@@H](NC(=O)[C@H](CO)NC(=O)[C@H](CC(C)C)NC(=O)[C@H](CCC(N)=O)NC(=O)[C@H](CO)NC(=O)[C@H](C)NC(=O)COCCOCCNC(=O)COCCOCCNC(=O)[C@H]1CC[C@H](CNC(=O)CCCCCCCCCCCCCCCCCCC(=O)O)CC1)[C@@H](C)O)C(C)C)C(=O)N[C@@H](CO)C(=O)N[C@@H](CC(=O)O)C(=O)N[C@@H](CCC(=O)O)C(=O)N[C@@H](CC(C)C)C(=O)N[C@@H](Cc1c[nH]cn1)C(=O)N[C@@H](CCCNC(=N)N)C(=O)N[C@@H](CC(C)C)C(=O)N[C@@H](CCC(N)=O)C(=O)N[C@@H](CC(=O)O)C(=O)N[C@@H](Cc1ccc(O)cc1)C(=O)N1CCC[C@H]1C(=O)N[C@@H](CCCNC(=N)N)C(=O)N[C@H](C(=O)N[C@@H](CC(=O)O)C(=O)N[C@H](C(=O)NCC(=O)N[C@@H](CO)C(=O)NCC(=O)N[C@@H](CO)C(=O)N1CCC[C@H]1C(N)=O)C(C)C)[C@@H](C)O [M27] ({C20 diacid-Trx-AEEA-AEEA}-ASQLSTAVLGRLSDELHRLQDYPRTDVGSGSP-NH2) | 0.004 nM | 0.004 nM | 0.533 nM |  |  |  |  |  |  |  | 
4 | CC(C)C[C@H](NC(=O)[C@H](CCCNC(=N)N)NC(=O)CNC(=O)[C@H](CC(C)C)NC(=O)[C@@H](NC(=O)[C@H](C)NC(=O)[C@@H](NC(=O)[C@H](CO)NC(=O)[C@H](CC(C)C)NC(=O)[C@H](CCC(N)=O)NC(=O)[C@H](CO)NC(=O)[C@H](C)NC(=O)COCCOCCNC(=O)COCCOCCNC(=O)[C@H]1CC[C@H](CNC(=O)CCCCCCCCCCCCCCCCC(=O)O)CC1)[C@@H](C)O)C(C)C)C(=O)N[C@@H](CO)C(=O)N[C@@H](CC(=O)O)C(=O)N[C@@H](CCC(=O)O)C(=O)N[C@@H](CC(C)C)C(=O)N[C@@H](Cc1c[nH]cn1)C(=O)N[C@@H](CCCNC(=N)N)C(=O)N[C@@H](CC(C)C)C(=O)N[C@@H](CCC(N)=O)C(=O)N[C@@H](CC(=O)O)C(=O)N[C@@H](Cc1ccc(O)cc1)C(=O)N1CCC[C@H]1C(=O)N[C@@H](CCCNC(=N)N)C(=O)N[C@H](C(=O)N[C@@H](CC(=O)O)C(=O)N[C@H](C(=O)NCC(=O)N[C@@H](CO)C(=O)NCC(=O)N[C@@H](CO)C(=O)N1CCC[C@H]1C(N)=O)C(C)C)[C@@H](C)O [M28] ({C18 diacid-Trx-AEEA-AEEA}-ASQLSTAVLGRLSDELHRLQDYPRTDVGSGSP-NH2) | 0.002 nM | 0.002 nM | 0.089 nM |  |  |  |  |  |  |  | 
5 | CC[C@H](C)[C@H](NC(=O)[C@@H]1CCCN1C(=O)[C@H](CCCCN)NC(=O)[C@H](CC(C)C)NC(=O)[C@H](CC(N)=O)NC(=O)[C@H](CC(N)=O)NC(=O)[C@H](CO)NC(=O)[C@H](CO)NC(=O)[C@H](Cc1c[nH]cn1)NC(=O)[C@H](CCCNC(=N)N)NC(=O)[C@H](CC(C)C)NC(=O)[C@H](Cc1ccccc1)NC(=O)[C@H](CC(=O)O)NC(=O)[C@H](C)NC(=O)[C@H](CC(C)C)NC(=O)[C@H](CCCNC(=N)N)NC(=O)[C@H](CCC(N)=O)NC(=O)[C@@H](NC(=O)[C@H](C)NC(=O)[C@@H]1CSSC[C@H](NC(=O)[C@H](CCCCN)NC(=O)COCCOCCNC(=O)COCCOCCNC(=O)C[C@H](NC(=O)CCCCCCCCCCCCCCCCCCC(=O)O)C(=O)O)C(=O)N[C@@H](CC(N)=O)C(=O)N[C@@H]([C@@H](C)O)C(=O)N[C@@H](C)C(=O)N[C@@H]([C@@H](C)O)C(=O)N1)[C@@H](C)O)C(=O)N[C@@H](CC(C)C)C(=O)N1CCC[C@H]1C(=O)N1CCC[C@H]1C(=O)N[C@H](C(=O)N[C@@H](CC(N)=O)C(=O)N[C@H](C(=O)NCC(=O)N[C@@H](CO)C(=O)N[C@@H](CC(N)=O)C(=O)N[C@H](C(=O)N1C[C@H](O)C[C@H]1C(N)=O)[C@@H](C)O)C(C)C)[C@@H](C)O [N2] ({C20 diacid-βAsp-AEEA-AEEA}-KCNTATCATQRLADFLRHSSNNLKPILPPTNVGSNT[Hyp]-NH2; disulfide 2-7 (inferred)) |  |  |  |  | 18.595 g | 0.688% | 9.280 g | −3.188% | 1.585 g | −7.110% | EC50 ([1]; incubation of 4 hours (N2 and N3 retested), Table 3 lower part, read-out: EC50, activity against the amylin receptor in cells): 0.009 nM; effect on reducing body weight [4]: significantly greater effect
6 | CC[C@H](C)[C@H](NC(=O)[C@@H]1CCCN1C(=O)[C@H](CCCCN)NC(=O)[C@H](CC(C)C)NC(=O)[C@H](CC(N)=O)NC(=O)[C@H](CC(N)=O)NC(=O)[C@H](CO)NC(=O)[C@H](CO)NC(=O)[C@H](Cc1c[nH]cn1)NC(=O)[C@H](CCCNC(=N)N)NC(=O)[C@H](CC(C)C)NC(=O)[C@H](Cc1ccccc1)NC(=O)[C@H](CC(=O)O)NC(=O)[C@H](C)NC(=O)[C@H](CC(C)C)NC(=O)[C@H](CCCNC(=N)N)NC(=O)[C@H](CCC(N)=O)NC(=O)[C@@H](NC(=O)[C@H](C)NC(=O)[C@@H]1CSSC[C@H](NC(=O)[C@H](CCCCN)NC(=O)COCCOCCNC(=O)COCCOCCNC(=O)C[C@H](NC(=O)CCCCCCCCCCCCCCCCC(=O)O)C(=O)O)C(=O)N[C@@H](CC(N)=O)C(=O)N[C@@H]([C@@H](C)O)C(=O)N[C@@H](C)C(=O)N[C@@H]([C@@H](C)O)C(=O)N1)[C@@H](C)O)C(=O)N[C@@H](CC(C)C)C(=O)N1CCC[C@H]1C(=O)N1CCC[C@H]1C(=O)N[C@H](C(=O)N[C@@H](CC(N)=O)C(=O)N[C@H](C(=O)NCC(=O)N[C@@H](CO)C(=O)N[C@@H](CC(N)=O)C(=O)N[C@H](C(=O)N1C[C@H](O)C[C@H]1C(N)=O)[C@@H](C)O)C(C)C)[C@@H](C)O [N3] ({C18 diacid-βAsp-AEEA-AEEA}-KCNTATCATQRLADFLRHSSNNLKPILPPTNVGSNT[Hyp]-NH2; disulfide 2-7) |  |  |  |  | 11.920 g | −0.316% | 6.735 g | −3.822% | 0.120 g | −9.000% | agonistic activity against the amylin receptor (in words) [1]: high agonistic activity; 24 h food intake [3, 12]: 2.100 g; 24 h weight change [3, 12]: −8.422%; 24 h food intake [3, 13]: 0.500 g; 24 h weight change [3, 13]: −11.276%; effect on reducing body weight and food intake of the animals ([3]; N3 compared with N2 (Table 10)): stronger effect; effect on reducing body weight and accumulated food intake in the SD rats ([3]; compared with D1, dose-dependent (Table 9)): enhanced effect
